From PubChem BioAssay AID624417 (National Center for Advancing Translational Sciences (NCATS), 2012)
The campaign covered roughly 410,000 compounds. About 6,400 (1.6%) were called active. The inconclusive results got no clear call from the source; some entries with a clear call stand among them for comparison. Calls come from the whole dose curve; as a rule, active = well fitted inhibition curve with a large enough effect; inconclusive = small, poorly fitted or top-dose-only effect; inactive = no such curve, though single readings can be large or run the other way. No potency is given beside an inconclusive call; the fits are too rough.

molecular target: Glucagon-like peptide 1 receptor (Homo sapiens) (UniProt P43220); assay: qHTS of GLP-1 Receptor Inverse Agonists (Inhibition Mode); conditions: HEK293 GLP-1R CRE-luciferase, luminescence, 24 h, GLP-1R form is constitutively active; activity change, negative = inhibition: at 38.3 µM (top of the series) unless noted; note: nearly all actives have a fitted effect of over 55% in size
Summary of the method: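 GLP-1R inverse agonism mode: basal reporter luminescence in engineered HEK293 cells measured after one day of compound exposure at 37 deg C, with a 12 min room-temperature detection step.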
% is set by controls: 0 for no effect and ±100 for the full control effect; potency is the fitted concentration of half-maximal effect; tags give direction and shape of the fitted curve.

UniProt P43220, sequence (P43220 whole entry, looked up): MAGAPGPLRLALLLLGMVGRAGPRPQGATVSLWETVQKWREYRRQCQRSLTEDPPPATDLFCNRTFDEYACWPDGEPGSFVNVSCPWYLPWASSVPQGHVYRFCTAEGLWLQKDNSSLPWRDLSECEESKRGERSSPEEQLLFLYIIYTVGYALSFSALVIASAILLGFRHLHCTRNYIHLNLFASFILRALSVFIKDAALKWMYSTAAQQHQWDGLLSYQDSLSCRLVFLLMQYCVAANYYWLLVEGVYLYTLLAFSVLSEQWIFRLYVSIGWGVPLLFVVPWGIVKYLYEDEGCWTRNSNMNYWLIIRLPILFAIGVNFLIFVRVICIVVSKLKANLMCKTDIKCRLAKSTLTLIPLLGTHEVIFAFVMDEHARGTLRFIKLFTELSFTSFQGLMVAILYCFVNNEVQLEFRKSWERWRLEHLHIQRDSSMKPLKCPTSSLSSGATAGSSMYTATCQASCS

| SMILES | Potency | activity change, negative = inhibition |
| --- | --- | --- |
| C#CCN(C[C@@H]1[C@@H](OC(=O)Nc2cccs2)[C@@H](OC(=O)Nc2cccs2)Cn2c(=O)n(CCCCCC)c(=O)n21)S(=O)(=O)c1ccc(C)cc1 | inconclusive [inhibitor, full curve] | – |
| N/C(CCS(=O)(=O)c1ccc(Cl)cc1)=N\OC(=O)c1ccc(Cl)cc1 | – | inactive: 17.7% |
| CCOc1cc(C(=O)CSc2nnc(CNc3ccc(Cl)cc3)o2)ccc1NC(=O)CC | inconclusive [inhibitor, partial curve, poor fit] | – |
| Cc1cccc(Cn2cc(C(=O)Nc3ccc(F)c(C(F)(F)F)c3)ccc2=O)c1 | active: 10 µM | – |
| OCCNc1nc(NCCC2=CCCCC2)nc(N2CCOCC2)n1 | inconclusive [inhibitor, single point] | – |
| CC(C)[C@H](NS(=O)(=O)c1ccc2c(c1)OCCO2)C(=O)OCC(=O)Nc1ccccc1 | – | inactive: -6.89% |
| COc1ccccc1C(=O)Nc1ccccc1N1CCCCC1 | inconclusive [inhibitor, partial curve, poor fit] | – |
| Cc1cc(NC(=O)c2ccno2)no1 | – | inactive: 0.143% |
| CC(=O)Nc1ccc(-c2csc(NCCc3ccccc3)n2)cc1 | inconclusive [inhibitor, single point] | – |
| O=C(CN1CCCc2ccccc21)NC(=O)NC1CCCCC1 | inconclusive [inhibitor, partial curve, poor fit] | – |
| Brc1cccc(OCCSc2ncccn2)c1 | inconclusive [inhibitor, partial curve, poor fit] | – |
| O=C(OC1CCCCC1)c1ccc(NC(=O)c2ccco2)cc1 | inconclusive [inhibitor, partial curve, poor fit] | – |
| O[C@H]1C[C@H](c2ccccc2)N(Cc2cccs2)C[C@@H]1n1cc(-c2ccc(F)cc2)nn1 | inconclusive [inhibitor, partial curve, poor fit] | – |
| CCOc1ccc2nc(NC(=O)CSc3nnnn3C3CCCCC3)sc2c1 | inconclusive [inhibitor, partial curve, poor fit] | – |
| O=C1OCCN1C(=O)[C@H]1[C@H](c2ccc([N+](=O)[O-])cc2)C(c2ccccc2)=NN1c1ccc(Br)cc1 | active: 3.55 µM | – |
| COc1cccc(SCC(=O)N2CCN(c3ccccc3)CC2)c1 | – | inactive: -21.2% |
| C/C=C\C=C\C(=O)N1CC2(CC(c3cccc(NC(=O)CC(c4ccccc4)c4ccccc4)c3)=NO2)C[C@H]1C(N)=O (stereo not given in full) | inconclusive [inhibitor, single point] | – |
| CCN(c1ccccc1)S(=O)(=O)c1cccc(C(=O)NCC(c2ccc(OC)cc2)N2CCCCC2)c1 (stereo not given) | inconclusive [inhibitor, single point] | – |
| CCc1ccc2c(c1)NC(c1cccs1)=NC(c1ccc(F)cc1)=N2 | inconclusive [inhibitor, single point] | – |
| COc1ccc(CCN2C(=O)CC(Cc3cccc(C)c3)C2=O)cc1OC (stereo not given) | inconclusive [inhibitor, partial curve, poor fit] | – |

| SMILES | Potency | activity change, negative = inhibition |
| --- | --- | --- |
| O=C1OCCN1C(=O)[C@H]1[C@H](c2ccc(F)cc2)C(c2ccc(F)cc2)=NN1c1ccc(Br)cc1 | inconclusive [inhibitor, partial curve, poor fit] | – |
| COC(=O)c1ccc(/C=N/OCC(=O)NC2CCCCCCC2)cc1 | active: 12.6 µM | – |
| CC(=O)c1cccc(NC(=O)c2cccc3c(-c4cccnc4)coc23)c1 | inconclusive [inhibitor, single point] | – |
| CC(=O)N1CCCN(Cc2cn(-c3cc(C)ccc3C)nc2-c2ccccc2)CC1 | inconclusive [inhibitor, single point] | – |
| COC(=O)c1cc(Br)c(=O)n(CC(C)C)c1 | – | inactive: 0.312% |
| O=c1c(Cl)c(Cl)cnn1Cc1ccc(F)cc1 | inconclusive [inhibitor, single point] | – |
| Cc1ccc(NS(=O)(=O)c2cc(Br)cc3c2N(C(=O)C2CC2)CC3)cc1C | inconclusive [inhibitor, partial curve, poor fit] | – |
| CCCS(=O)(=O)c1c(Nc2ccccc2C)sc(C(=O)c2ccccc2)c1N | inconclusive [inhibitor, single point] | – |
| CC(C)NCC(O)Cn1c2c(c3ccccc31)CCc1c-2cnn1-c1ccccc1 (stereo not given) | active: 10 µM | – |
| O=C(COC(=O)c1cccnc1Cl)Nc1cccc(S(=O)(=O)N2CCCCC2)c1 | – | inactive: -11% |
| CCOc1ccccc1CNC(=O)CCn1ccc2cc(S(=O)(=O)N3CCC(C)CC3)ccc21 | inconclusive [inhibitor, single point] | – |
| Cc1ccsc1/C=N/Nc1cccc(C(=O)O)c1 | active: 4.47 µM | – |
| COc1ccccc1CNC(=O)c1cc(-c2ccccc2)nn1Cc1cc(C)no1 | inconclusive [inhibitor, single point] | – |
| O=C(CSc1nc2ncc(Cl)cc2[nH]1)Nc1ccccc1-c1ccccc1 | inconclusive [inhibitor, single point] | – |
| COc1ccc(N2CCN(c3ncnc4sc(C(=O)NCC5CCCO5)c(C)c34)CC2)cc1 (stereo not given) | inconclusive [inhibitor, single point] | – |
| Cc1nc(Nc2nc3c(c(=O)[nH]2)CCC3)nc2ccccc12 | inconclusive [inhibitor, single point] | – |
| CCc1c(C)nc2cc(-c3cc(OC)cc(OC)c3)nn2c1N1CCCC1 | inconclusive [inhibitor, single point] | – |
| O=C(CSc1nccn1-c1ccc(Cl)cc1)Nc1ccc2c(c1)OCO2 | inconclusive [inhibitor, partial curve, poor fit] | – |
| COc1ccc(CNC(=O)[C@]2(C)CCC[C@@]3(C)C4CC[C@@]5(C)C[C@]4(CCC32)CC5=O)cc1 (stereo not given in full) | active: 10 µM | – |
| COc1cc(OC)nc(C(NC(=O)C2CCN(Cc3c[nH]c4ccccc34)CC2)c2ccc(Cl)cc2)n1 (stereo not given) | inconclusive [inhibitor, partial curve, poor fit] | – |
